{
  "source": "PubChem BioAssay AID588855",
  "about": "(National Center for Advancing Translational Sciences (NCATS), 2011)",
  "note": "In all, about 410,000 compounds went through this assay and about 5,000 (1.2%) were called active. The inconclusive results got no clear call from the source; some entries with a clear call stand among them for comparison. Calls follow the shape of the dose curve; as a rule, active = well fitted inhibition curve with a large enough effect; inconclusive = small, poorly fitted or top-dose-only effect; inactive = no such curve, though single readings can be large or run the other way. A potency beside an inconclusive call is a rough fit, not a confirmed value. Potency is read from the fitted curve at half-maximal effect; tags tell the direction and shape of the fitted curve.",
  "data": [
    {"assay": "qHTS for Inhibitors of TGF-b; also: nearly all actives have a fitted effect of over 65% in size", "conditions": "HepG2 CAGA-GFP TGF-b/SMAD3 reporter, GFP fluorescence, 18 h, TGF-beta stimulated, 500 pg/mL final; series mostly up to 46.1 µM", "procedure,_shortened": "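Smad-responsive CAGA-GFP expression was quantified in HEPG2 cells exposed to compounds and 500 pg/mL final TGF-beta for 18 h at 37 degrees C; unstimulated wells defined full inhibition.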", "values": [
      {"molecule": "Cc1ccc(S(=O)(=O)N2CCN(CCc3ccncc3)CC2)cc1", "Potency": "inactive"},
      {"molecule": "Cc1ccccc1Cn1c(COc2ccc(Cl)cc2)nc2ccccc21", "Potency": "inactive"},
      {"molecule": "O=[N+]([O-])c1ccccc1S(=O)c1ccccc1[N+](=O)[O-]", "Potency": "inconclusive: 25.1 µM [inhibitor, single point]"},
      {"molecule": "O=C(Nc1cccc(F)c1)C1CCCN(S(=O)(=O)c2cccc3cccnc23)C1", "note": "(centres undefined)", "Potency": "inconclusive: 2.82 µM [inhibitor, partial curve, poor fit]"},
      {"molecule": "O=C(C[C@@H]1C/C=C/CC[C@@H](Cc2ccc(F)cc2)C(=O)O[C@@H](c2ccccc2)CNC1=O)NCCO", "Potency": "inconclusive: 7.08 µM [inhibitor, partial curve]"},
      {"molecule": "Cc1nc([N+](=O)[O-])c(N2CCOCC2)n1Cc1ccccc1", "Potency": "inactive"},
      {"molecule": "Cc1[nH]nc2c1C1(C(=O)N(Cc3ccc(Cl)cc3)c3ccccc31)C(C#N)=C(N)O2", "note": "(centres undefined)", "Potency": "inconclusive: 22.4 µM [inhibitor, single point]"},
      {"molecule": "CC1CCCC(NC(=O)CN2C(=O)NC(C)(c3ccccc3)C2=O)C1C", "note": "(centres undefined)", "Potency": "inactive"},
      {"molecule": "O=C(COc1ccccc1C(=O)O)Nc1nc2ccc([N+](=O)[O-])cc2s1", "Potency": "inconclusive: 12.6 µM [inhibitor, single point]"},
      {"molecule": "CCC(C)N(NC(C)=O)c1nc(Cl)nc(NC(C)C)n1", "note": "(centres undefined)", "Potency": "inconclusive: 5.62 µM [inhibitor, full curve, poor fit]"},
      {"molecule": "CC(=O)c1ccc(C(=O)Nc2ccc3c(c2)C(=O)NC3=O)cc1", "Potency": "inconclusive: 5.62 µM [inhibitor, single point]"},
      {"molecule": "O=C(c1nnsc1S(=O)c1ccc(Cl)cc1)N1CCOCC1", "note": "(centres undefined)", "Potency": "inconclusive: 35.5 µM [inhibitor, single point]"},
      {"molecule": "CC1C/C(=N\\NC(N)=S)c2cc(Cl)ccc2S1", "note": "(centres undefined)", "Potency": "inconclusive: 7.08 µM [inhibitor, full curve, poor fit]"},
      {"molecule": "O=C(COC(=O)c1ccc2c(c1)C(=O)N(Cc1ccco1)C2=O)NCC(F)(F)F", "Potency": "inactive"},
      {"molecule": "COc1ccc(Cl)cc1C=CC=Nc1ccccc1O", "Potency": "inconclusive: 12.6 µM [inhibitor, single point]"},
      {"molecule": "O=C(CSc1nc(-c2ccccc2)cn1-c1ccccc1F)Nc1ccc(F)cc1", "Potency": "active: 14.1 µM"},
      {"molecule": "CCOc1ccc(NC(=O)CCC(=O)N/N=C/c2ccc([N+](=O)[O-])s2)cc1", "Potency": "inconclusive: 3.98 µM [inhibitor, full curve, poor fit]"},
      {"molecule": "CC(Nc1nc(-c2ccc(F)cc2)cs1)c1nc2cc(C(F)(F)F)ccc2n1CCCO", "note": "(centres undefined)", "Potency": "inconclusive: 35.5 µM [inhibitor, single point]"},
      {"molecule": "COCCNc1nc2c(c(=O)n(C)c(=O)n2C)n1Cc1c(F)cccc1Cl", "Potency": "inconclusive: 35.5 µM [inhibitor, single point]"}
    ]}
  ]
}
